# Results published in the supplement of paper PMC11417369.
# Some of the results follow.
# Tested on: PfSIP2 AP2 domain 1 (GST-tagged)
# Test: gcPBM binding intensity (ln(normalized median fluorescence intensity)); higher = stronger DNA binding
# How it was run: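 Each value is the highest Masliner-normalised natural-log median intensity across replicate spots of either orientation of a probe. The probes were primer-extended double-stranded 36-bp intergenic genomic sequences on an Agilent 4 × 180k array, alongside negative controls, exposed for 1 h to GST-tagged P. falciparum DNA-binding domains expressed in E. coli. Bound protein was picked up with Alexa488 anti-GST antibody and scanned at 488 nm.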
row,Sequence,gcPBM binding intensity (ln)
1,TTGTATCCTTAATGCATGCACCAAATAACAAAAGTA,10.6
2,ACATATATAAAATAATGTACATTTTTAAGAATGCGT [XGTACX_site7654],7.13
3,ATTATAATTGCATATACACACAAAGGTTCATAACAA [CACACA_site7440],7.32
4,TATAATAAAATATGTACACACATACACCCATATATA [CACACA_site4808],7.13
5,ACAAGTAATTAAGAGTGTACATAACTATAAATCCAA [XGTACX_site5215],7.03
6,TGTATGTATGTATTATTTGTTATTTTAATTTTTTTG [TGCATGCA_negctrl_site256],7.43
7,AAAAATGATATGAGTTGTACATAAGTAAGAATTATT [XGTACX_site7089],6.82
8,TAAAAACGATTTTTTGCACACACATAATAAGCAGAA [CACACA_site3870],7.96
9,GGACAAGTTAAACGCACACAAATATATACCCCCATA [CACACA_site4996],7.87
10,GATGTGATGTATTTGGTATTTTTCGATGTTGGTAGG [CACACA_negctrl_site355],7.1
11,TATTATATATCAAAATGTACATTAATTTGAGTAATT [XGTACX_site5434],6.82
12,TTACCTCTTTGAAATATACACACTAATCATATCAAC [CACACA_site8778],7.16
13,TTTTTGCTATTCTATTATATATATAATATATTTTAC [CACACA_negctrl_site262],7.01
14,TGTTCAGTAGGGCACACACACAACAAAATAAAAAAA [CACACA_site378],7.32
15,GAGATTTATTTATGTGCACACTAGAACAATTGGATC [CACACA_site2090],8.98
16,TTTTTTTTTTTTGTGCGTACATACCATTTTAATAAT [XGTACX_site2760],7.38
17,CTTTTTTCAAAACACACACACAAGAAAATATATATA [CACACA_site3109],7.23
18,AAGACATTTTTTAAGGTGCTTTGGAAAAAGGAGTAT [GTGCAC_site9816],7.62
19,AAACATAAATATGAGAGTACAAAAAATATTATGAAT [XGTACX_site151],7.05
20,TGAAAAAAAAAATGCACACGCATACATATAATATGT [CACACA_site641],7.13
21,TTATAATATATTACAAGTTCATTCATATAATATGTT [CACACA_negctrl_site1695],6.8
22,ATCTCTTAAATTTTACGTACTTATTTTATCTTCTTA [XGTACX_site8877],6.9
23,AATAAATACATACATACATGCATACATATATCTCAA [TGCATGCA_site1040],7.1
24,AAAAATAAAATATATATATATATATATATATATATA [CACACA_negctrl_site58],9.66
